Assay results taken from PubChem BioAssay AID624417 (National Center for Advancing Translational Sciences (NCATS), 2012).
In all, about 410,000 compounds went through this assay and about 6,400 (1.6%) were called active. Inconclusive results, whose numbers are uncertain, are shown with a selection of clear calls. The call rests on the fitted dose curve; in most records, active means well fitted inhibition curve with a large enough effect; inconclusive means small, poorly fitted or top-dose-only effect; inactive means no such curve, though single readings can be large or run the other way. Where the call is inconclusive, the potency comes from a doubtful curve fit.

target: Glucagon-like peptide 1 receptor (Homo sapiens) (UniProt P43220); assay: qHTS of GLP-1 Receptor Inverse Agonists (Inhibition Mode); settings: HEK293 GLP-1R CRE-luciferase, luminescence, 24 h, GLP-1R form is constitutively active; activity change, negative = inhibition: at 38.3 µM (top of the series) unless noted; further: nearly all actives have a fitted effect of over 55% in size
Sequence of UniProt P43220 (P43220 whole entry, looked up): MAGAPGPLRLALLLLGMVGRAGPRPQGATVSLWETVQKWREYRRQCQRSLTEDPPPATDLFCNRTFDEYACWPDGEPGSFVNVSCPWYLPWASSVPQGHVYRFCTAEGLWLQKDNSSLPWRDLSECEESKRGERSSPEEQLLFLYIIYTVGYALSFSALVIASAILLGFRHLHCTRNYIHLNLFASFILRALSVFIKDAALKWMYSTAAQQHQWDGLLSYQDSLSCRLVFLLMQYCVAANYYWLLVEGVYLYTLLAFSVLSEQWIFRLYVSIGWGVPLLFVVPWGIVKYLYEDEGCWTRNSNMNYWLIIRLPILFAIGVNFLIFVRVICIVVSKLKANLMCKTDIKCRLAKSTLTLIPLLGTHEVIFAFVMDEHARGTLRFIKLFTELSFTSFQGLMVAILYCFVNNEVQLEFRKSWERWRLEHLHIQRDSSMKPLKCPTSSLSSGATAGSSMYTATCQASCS
How it was run: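 Readout was luciferase luminescence, measured 12 min after detection reagent at room temperature. Beforehand, GLP-1R reporter HEK293 cells had sat 12 h, then received compounds for 24 hr at 37 deg C.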
On the % scale 0 is the no-effect control and ±100 the full control effect; potency means the concentration at half of the fitted maximal effect; tags describe the fitted curve by direction and shape.

Activity change, negative = inhibition, inactive:
CCC(=O)N1CCN(c2ccccc2NC(=O)Cc2ccc(Cl)cc2)CC1 -8.07%, CN(C(=O)Nc1cn(C)c(=O)c2ccccc12)c1ccccc1 0.386%, CCc1cccc(NC(=O)Cn2c(=O)n(CC3CCC(C(=O)NCCc4ccccc4)CC3)c(=O)c3ccccc32)c1 (configuration not stated) 6.26%, CCC(Cn1nnc2ccccc2c1=O)NC(=O)Nc1cccc(Cl)c1 (configuration not stated) -19.5%, Cc1ccc(-c2cc(-c3ccc(C)o3)nc(N)c2C#N)cc1 15.5%, COCCNC(=O)CN1N=C(c2ccc(OC)cc2)CCC1=O 23%, Nc1ccc(C#Cc2ccc3c(=O)c4ccccc4oc3c2)cc1 8.49%, COc1ccc(NC(=S)N2CCc3ccccc32)cc1OC 8.26%, Cc1ccc2cc(C)c(SCC(=O)Nc3ccc(S(=O)(=O)N4CCCC4)cc3)nc2c1 -29.1%, CC1(C)Cc2nc3sc4c(=O)[nH]cnc4c3cc2CS1 40.3%, COC(=O)c1ccc(CNCC(O)COc2ccc(-c3ccccc3)cc2)cc1 (configuration not stated) 16.5%, Cc1cc(C)c2c(n1)sc1c(=O)n(Cc3ccccc3Cl)nnc12 0%, CCC(c1ccccc1)c1nnc(NC(=O)c2ccco2)s1 (configuration not stated) 9.61%, COc1cc(OC)c(NC(=O)Cn2c(=O)cc(C(F)(F)F)c3c(C)nn(C)c32)cc1Cl 10.6%, CCc1ccccc1NC(=O)c1cnn2c(C(F)(F)F)cc(-c3ccc(OC)c(OC)c3)nc12 11.9%, COc1cccc(CNc2nc3nc(C)c(Cl)c(C)n3n2)c1 22.9%, COc1ccc(-c2ccc(CCC(=O)O)n2Cc2ccco2)cc1 20.3%, COc1cccc(CNC(=O)c2ccc(CS(=O)Cc3ccc(C)cc3)o2)c1 (configuration not stated) -13.4%, Cc1cc(C)n(-c2nc3nonc3nc2-n2nc(C)cc2C)n1 0.342%, O=C(CN1CCN(c2ccc([N+](=O)[O-])cc2)CC1)Nc1ccccn1 -16.8%, O=C(COC(=O)c1cc(Cl)ccc1O)c1ccc2c(c1)OCO2 4.78%

Potency, active:
C=C(C)CNC(=S)NNC(=O)CCn1c2cc(Cl)ccc2c2ccc(Cl)cc21 11.2 µM, Cc1ccc(C(C)C)c(OCC(=O)Nc2ccc3c(c2)nc(CN2CCCC2)n3C)c1 10 µM, Cc1cccc(-c2nc(Nc3cccc(O)c3)c3ccccc3n2)c1 6.31 µM, COc1cc(C(=O)Nc2ccc(-c3cc(C(F)(F)F)nn3-c3ccccc3)cc2)cc(OC)c1OC 7.94 µM

Potency, inconclusive:
CCCSC1C(C)=C(C)C(=O)N1Cc1ccccc1 (configuration not stated) 10 µM [inhibitor, single point], COc1cncc(-c2cnc3sc(NCCc4ccccn4)nn23)c1 3.98 µM [inhibitor, partial curve, poor fit], Cc1ccc(C(=O)N2CCN(c3ccccc3F)CC2)cc1NC(=O)c1nsc2ccccc12 20 µM [inhibitor, single point], CCN(C(=O)C1CCN(c2nc(-c3ccc(OC)cc3)no2)CC1)c1ccccc1 11.2 µM [inhibitor, partial curve, poor fit], CC(=O)c1ccc(S(=O)(=O)N2CCN(CCOc3ccc(Br)cc3)CC2)cc1 28.2 µM [inhibitor, single point], O=[N+]([O-])c1cccc(CN2CCN(c3cccc4[nH]ccc34)CC2)c1 28.2 µM [inhibitor, single point], Cc1ccc(NC(=O)NCC2CCN(Cc3cccc(Cl)c3)CC2)c(Cl)c1 3.16 µM [inhibitor, partial curve, poor fit], Cc1oc(-c2cccc(Cl)c2)nc1CS(=O)(=O)CC(=O)NCCN1CCCC1 7.08 µM [inhibitor, partial curve, poor fit], Cc1ccc(SCC(=O)NCC2COc3ccccc3O2)cc1 (configuration not stated) 8.91 µM [inhibitor, partial curve, poor fit], Cc1ccccc1NC(=O)CSc1nnc(-c2ccoc2C)n1CCc1ccccc1 14.1 µM [inhibitor, partial curve, poor fit], COc1ccc2oc(C(=O)N3CCN(S(=O)(=O)c4cccc([N+](=O)[O-])c4)CC3)c(C)c2c1 7.08 µM [inhibitor, partial curve, poor fit], O=C1C=C(c2ccc(Cl)c(C(F)(F)F)c2)C[C@@H](c2ccc(Cl)cc2)C1 28.2 µM [inhibitor, single point], Cc1ccc(-c2nc(NC(=O)c3cc(C(C)(C)C)nn3C)sc2C)cc1Cl 10 µM [inhibitor, partial curve, poor fit], O=C(Nc1ncc(Cc2cccc(Cl)c2)s1)C1CCCO1 (configuration not stated) 28.2 µM [inhibitor, single point], Cc1cccc2sc(N(CCCN(C)C)C(=O)COc3ccc(Cl)cc3)nc12 28.2 µM [inhibitor, single point], C=C1C(=O)C2=CC1CCC(=O)C1(C)CCC(OC(C)=O)C(C)(C)C1CC2O (configuration not stated) 0.891 µM [inhibitor, full curve, poor fit], CCCCN(CC)CCCNC(=O)c1cn(C)c2ccc(S(=O)(=O)N(C)C3CCCCC3)cc2c1=O 10 µM [inhibitor, partial curve, poor fit], CCN1CCN(Cc2ccc(NC(=O)c3ccc(C)c(NC(=O)c4cncc(-c5cccs5)c4)c3)cc2C(F)(F)F)CC1 1.12 µM [inhibitor, full curve, poor fit], COc1ccc(Cl)cc1NC(=S)NCCSc1ccc(C)cc1 8.91 µM [inhibitor, partial curve, poor fit], CCOC(=O)c1c(C)sc(-c2c(-c3cc(C)ccc3C)[nH]c3c2c(=O)[nH]c(=O)n3C)c1O 10 µM [inhibitor, partial curve], CC(C)OP(=O)(OC(C)C)/C(C=O)=N\Nc1ccc([N+](=O)[O-])cc1 10 µM [inhibitor, partial curve, poor fit], CCOc1cc(/C=N/O)cc(Br)c1OCC(=O)NCc1ccccc1 8.91 µM [inhibitor, partial curve, poor fit], CC1(C(=O)NCc2cccc(Cl)c2)Cc2c(-c3ccc4c(c3)OCO4)ccnc2O1 (configuration not stated) 28.2 µM [inhibitor, single point], COc1ccc(CN2CCCC(CNC(=O)c3ccc(F)cc3)C2)c(C)c1C (configuration not stated) 12.6 µM [inhibitor, partial curve, poor fit], N#Cc1ccc2[nH]cc(C3c4cc(F)ccc4C=C(c4ccsc4)N3c3ccc(C#CCCO)cc3)c2c1 (configuration not stated) 3.98 µM [inhibitor, partial curve, poor fit], CC(=O)c1ccc(N2CCN(CC(O)COC(c3ccccc3)c3ccccc3)CC2)cc1 (configuration not stated) 12.6 µM [inhibitor, partial curve, poor fit], Cc1ccccc1NC(=O)CSc1nc2ccc(NC(=O)COc3ccccc3F)cc2s1 14.1 µM [inhibitor, single point], CCn1cnc2c1c(=O)n(Cc1csc(-c3ccccc3)n1)c(=O)n2Cc1ccccc1 10 µM [inhibitor, partial curve, poor fit], Cc1ccc(C(=O)N(CCN(C)C)CC2CCCN(Cc3ccccc3F)C2)cc1C (configuration not stated) 11.2 µM [inhibitor, single point], O=C(Nc1ccc(Oc2cccc(C(F)(F)F)c2)nc1)c1cccs1 8.91 µM [inhibitor, partial curve, poor fit], COc1ccccc1-c1nnc(SCC(=O)N2CC(C)CC(C)C2)o1 (configuration not stated) 7.94 µM [inhibitor, partial curve], Cc1ccc(-c2nnn(CC(=O)NC3CC4CCC3C4)n2)cc1 (configuration not stated) 10 µM [inhibitor, partial curve, poor fit], COc1ccccc1CNc1nc(-c2ccco2)nn1S(=O)(=O)c1ccc(Cl)cc1 28.2 µM [inhibitor, single point], c1ccc(-c2cnc(-c3ccccn3)nn2)cc1 10 µM [inhibitor, single point], COc1ccccc1N1CCN(C(=O)c2onc(C)c2Cl)CC1 11.2 µM [inhibitor, single point], CCCCN(C)CCN1C(=O)C2C(C(=O)Nc3ccc(C)cc3)C3C=CC2(O3)C1C(=O)NC1CCCCC1 (configuration not stated) 11.2 µM [inhibitor, partial curve, poor fit], O=C(Nc1ccccc1N1CCCC1)c1cc(S(=O)(=O)N2CCOCC2)ccc1Cl 12.6 µM [inhibitor, partial curve, poor fit], COC(=O)C1=CN(c2ccc(C(C)(C)C)cc2)C(N)=C(C#N)C1c1cccc2ccccc12 (configuration not stated) 3.16 µM [inhibitor, full curve], O=c1c2ccccc2sc2ccc(NCCCN3CCOCC3)cc12 28.2 µM [inhibitor, single point], Cc1nc2nc(-c3cccs3)cn2nc1C 8.91 µM [inhibitor, single point], Nn1c(Cc2cccc3ccccc23)nnc1SCc1ccccc1 11.2 µM [inhibitor, single point], CCC1(C)Cc2ccccc2/C(=C/C(=O)N2CCCCC2)N1 (configuration not stated) 11.2 µM [inhibitor, partial curve, poor fit]
